Data published in the supplement of paper PMC5919970.
Counter-ions that a name gives are not always drawn. In all, about 2,000 compounds were measured (“fractional viability relative to vehicle”: median about 0.92, lowest 2% from about 0.11 on). The list shows a part of the results.

Test system: TYKNU
Assay: fractional viability relative to vehicle; TYKNU is a high-grade serous ovarian cancer line; higher = less growth inhibition
Conditions: 72 h, genotype: OPA1 knockout (sgOPA1 #2)
In short: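 Drug treatment lasted 72 h, with cells grown at 37 °C in 5% CO2 in RPMI 1640 supplemented with 10% FBS. Beforehand, TYKNU control cells or their lentiCRISPRv2 knockout derivatives had been seeded at 500 cells per well into drug-stamped 384-well plates carrying a ~2100-compound library at 2 or 10 μM, in duplicate. Viability came from Cell Titer Glo luminescence, with averaged duplicate treatment wells normalised to duplicate control wells in the same plate position.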

Compound | fractional viability (2uM) | fractional viability (10uM)
c1ccc2c(c1)Nc1ccccc1S2 [Phenothiazine] | 0.943 | 0.998
CN1CCCCC1Cn1cc(C(=O)c2cc([N+](=O)[O-])ccc2I)c2ccccc21 (stereo not given) | 1.11 | 1.11
O=c1ccc2cc(O[C@@H]3O[C@H](CO)[C@@H](O)[C@H](O)[C@H]3O)c(O)cc2o1 [Esculin] | 1.24 | 0.78
O=C(O)C(=O)c1cn(Cc2ccccc2)c2ccc(-c3ccc(OC(F)(F)F)cc3)cc12 [Tiplaxtinin (PAI-039)] | 0.83 | 0.666
c1cc2c(cc1[C@H]1OC[C@H]3[C@@H]1CO[C@@H]3c1ccc3c(c1)OCO3)OCO2 [Sesamin] | 1.06 | 0.894
Cc1cc(O)ccc1Cl [Chlorocresol] | 1.01 | 0.909
Fc1cc(F)c2c(c1)[C@H]1C=CC[C@H]1C(c1cccnc1)N2 (stereo not given in full) [Golgicide A] | 0.235 | 0.256
Nc1nc(N)nc(NC2CC2)n1 [Cyromazine] | 1.01 | 0.994
CN1[C@@H]2CC[C@H]1C[C@@H](OC(=O)[C@H](CO)c1ccccc1)C2 [Hyoscyamine] | 1 | 0.873
NCCc1ccc(S(=O)(=O)F)cc1 | 0.87 | 0.853
O=[N+]([O-])/C=C/c1ccc2c(c1)OCO2 | 0.477 | 0.113
C/C(=C\c1csc(C)n1)[C@@H]1C[C@@H]2O[C@]2(C)CCC[C@H](C)[C@H](O)[C@@H](C)C(=O)C(C)(C)[C@@H](O)CC(=O)O1 [Epothilone B (EPO906, Patupilone)] | 0.662 | 0.47
C=CC[C@]1(O)CC[C@H]2[C@@H]3CCC4=CC(=O)CCC4=C3C=C[C@@]21C [Altrenogest] | 0.97 | 0.84
Cc1cccc(C(C)c2c[nH]cn2)c1C (stereo not given) [Medetomidine HCl] | 0.977 | 1.04
C=C[C@H]1CN2CC[C@H]1C[C@H]2[C@H](O)c1ccnc2ccccc12 [Cinchonidine] | 0.878 | 0.804
COC[C@H]1OC(=O)c2coc3c2[C@@]1(C)C1=C(C3=O)[C@@H]2CCC(=O)[C@@]2(C)C[C@H]1OC(C)=O [Wortmannin] | 0.744 | 0.149
CC1(C)CC(O)CC(C)(C)N1[O] [Tempol] | 0.982 | 1.06
O=S(=O)(CC1CS1)c1ccc(Oc2ccccc2)cc1 (stereo not given) | 0.624 | 0.363
CN1[C@@H]2CC(O)C[C@H]1[C@@H]1O[C@@H]12 (stereo not given in full) [Scopine] | 0.96 | 0.768
O=c1[nH]c2ccccc2n1CCCN1CCC(n2c(=O)[nH]c3cc(Cl)ccc32)CC1 [Domperidone] | 1.14 | 0.866
COc1ccc(C(=O)N2CCCC2=O)cc1 [Aniracetam] | 1.21 | 1.1
O=C(O[C@H]1C[C@H]2CC[C@@H](C1)[N+]21CCCC1)C(O)(c1ccccc1)c1ccccc1 [Trospium chloride] | 1.05 | 1.02
CC[C@@H](C(N)=O)N1CCCC1=O [Levetiracetam] | 1.22 | 1.13
O=C(O)CCCc1ccc(N(CCCl)CCCl)cc1 [Chloroambucil] | 1.06 | 0.726
CN(C)Cc1c[nH]c2ccccc12 [Gramine] | 0.94 | 0.991

Compound | fractional viability (2uM) | fractional viability (10uM)
NC(=O)CN1CC(O)CC1=O (stereo not given) [Oxiracetam] | 0.878 | 0.945
CN1CCC(c2c[nH]c3ccc(O)cc23)CC1 | 0.838 | 0.922
C1=C2CCCN[C@H]2[C@@H]2C[C@H]1[C@H]1CCCCN1C2 [Aloperine] | 1.02 | 0.89
COc1cc([C@@H]2c3cc4c(cc3[C@H](O)[C@H]3COC(=O)[C@@H]23)OCO4)cc(OC)c1OC [Picropodophyllin (PPP)] | 0.431 | 0.348
O=C(O)CNC(=O)c1c(O)c2ccccc2n(Cc2ccccc2)c1=O | 1.18 | 0.799
C[N+](C)(C)CCCCCCCCCC[N+](C)(C)C [Decamethonium Bromide] | 0.926 | 0.935
CCNC(=O)C[C@@H]1N=C(c2ccc(Cl)cc2)c2cc(OC)ccc2-n2c(C)nnc21 | 0.715 | 0.794
CC(C)=CCC[C@]1(C)C=Cc2c(O)c3c(c(CC=C(C)C)c2O1)O[C@]12C(=C[C@@H]4C[C@H]1C(C)(C)O[C@@]2(C/C=C(/C)C(=O)O)C4=O)C3=O [Gambogic Acid] | 0.0971 | 0.0282
CN1c2ccccc2C(NCCCCCCC(=O)O)c2ccc(Cl)cc2S1(=O)=O (stereo not given) [Tianeptine sodium] | 1.15 | 1.02
CC[C@@]1(O)C(=O)OCc2c1cc1n(c2=O)Cc2cc3ccccc3nc2-1 [Camptothecin] | 0.261 | 0.141
C[C@H]1CCC/C=C/[C@@H]2C[C@H](O)C[C@H]2[C@H](O)/C=C/C(=O)O1 [Brefeldin A] | 0.269 | 0.277
CC1=C(O)C(=O)C=C2C1=CC=C1[C@@]2(C)CC[C@@]2(C)[C@@H]3C[C@](C)(C(=O)O)CC[C@]3(C)CC[C@]12C [Celastrol] | 0.123 | 0.0841
COc1cc(-n2c(=S)[nH]c3ccccc3c2=O)c(Cl)cc1Cl [Mdivi-1] | 0.891 | 0.759
CC(=O)Nc1ccc(Cc2ccc(NC(C)=O)cc2)cc1 | 0.777 | 0.739
CCCN1C[C@H](CSC)C[C@@H]2c3cccc4[nH]cc(c34)C[C@H]21 [Pergolide mesylate] | 0.978 | 0.96
C[C@]12N[C@H](Cc3ccccc31)c1ccccc12 [MK-801 (Dizocilpine)] | 1.04 | 0.956
C[C@](O)(COc1ccc(C#N)cc1)C(=O)Nc1ccc(C#N)c(C(F)(F)F)c1 | 0.943 | 0.869
CC(=O)Nc1ccc(OC[C@](C)(O)C(=O)Nc2ccc([N+](=O)[O-])c(C(F)(F)F)c2)cc1 [Andarine] | 1.18 | 1.18
COC(=O)C1=CCCN(C)C1 [Arecoline] | 1.04 | 0.781
CNCC(=O)c1ccc(O)c(O)c1 [Adrenalone HCl] | 1.06 | 0.78
CC(C)N(CCNC(=O)CN1CCCC1=O)C(C)C [Pramiracetam] | 1.15 | 0.839
C[C@]12CC[C@H]3[C@@H](CC[C@@]45O[C@@H]4C(O)=C(C#N)C[C@]35C)[C@@H]1CC[C@@H]2O [Trilostane] | 1.02 | 1.14
C[C@@H]1O[C@@H](O[C@H]2C[C@@H](O)[C@]3(CO)[C@H]4[C@H](O)C[C@]5(C)[C@@H](C6=CC(=O)OC6)CC[C@]5(O)[C@@H]4CC[C@]3(O)C2)[C@H](O)[C@H](O)[C@H]1O [Ouabain] | 0.136 | 0.126
NCC(O)c1ccc(O)cc1 (racemic) [(+,-)-Octopamine HCl] | 0.98 | 1.01
C[C@]12CC[C@H](O)C[C@@H]1CC[C@@H]1[C@@H]2CC[C@]2(C)C(=O)CC[C@@H]12 [Epiandrosterone] | 1.08 | 0.914

Compound | fractional viability (2uM) | fractional viability (10uM)
C[N+]1(C)[C@@H]2C[C@@H](OC(=O)[C@H](CO)c3ccccc3)C[C@H]1[C@@H]1O[C@@H]12 [Methscopolamine] | 0.982 | 0.966
CN(C)C(=O)Oc1cc(OC(=O)N(C)C)cc(C(O)CNC(C)(C)C)c1 (stereo not given) [Bambuterol HCl] | 0.928 | 1
CCN(C)C(=O)Oc1cccc([C@H](C)N(C)C)c1 [Rivastigmine Tartrate] | 0.932 | 1.07
CCC1(c2ccc(N)cc2)CCC(=O)NC1=O (stereo not given) [Aminoglutethimide] | 1.04 | 1.04
NC(=O)CN1CCCC1=O [Piracetam] | 1.13 | 0.943
O=P1(NCCCl)OCCCN1CCCl (stereo not given) [Ifosfamide] | 1.31 | 1.05
O=C1CCC[C@@H]2[C@H]3CCCN4CCC[C@@H](CN12)[C@@H]34 [(+)-Matrine] | 0.865 | 0.808
Cc1cccc(C)c1NC1=NCCCS1 [Xylazine HCl] | 0.823 | 0.79
O=C(Oc1ccc([N+](=O)[O-])cc1)N1CCC(C(O)(c2ccc3c(c2)OCO3)c2ccc3c(c2)OCO3)CC1 | 0.994 | 0.739
CC[C@@H]1/C=C/C=C/C[C@H](C)[C@H](O)[C@](C)(O)C(=O)[C@H](C)[C@@H](O)[C@H](C)C(=O)[C@H](C)[C@@H](O)[C@H](C)/C=C/C(=O)O[C@H]2[C@@H](C)[C@@H](CC1)O[C@@]1(CC[C@@H](C)[C@@H](C[C@H](C)O)O1)[C@@H]2C [Oligomycin A] | 1.01 | 0.871
CC(C)(C)[C@]1(O)CC2OC(=O)CC23C(=O)OC2OC(=O)[C@H](O)C231 (stereo not given in full) [Bilobalide] | 0.909 | 0.944
Cc1cc(SCc2sc(-c3ccc(C(F)(F)F)c(F)c3)nc2C)ccc1OCC(=O)O | 0.824 | 0.75
O=C(O[C@H]1C[N+]2(CCCOc3ccccc3)CCC1CC2)C(O)(c1cccs1)c1cccs1 [Aclidinium Bromide] | 0.952 | 0.927
CN[C@@H]1C[C@H]2O[C@@](C)([C@@H]1OC)n1c3ccccc3c3c4c(c5c6ccccc6n2c5c31)C(=O)NC4 [Staurosporine] | 0.264 | 0.0922
C/C=C(\C)C(=O)N[C@@H](c1ccccc1)[C@@H](O)C(=O)O[C@H]1C[C@@]2(O)[C@@H](OC(=O)c3ccccc3)[C@@H]3[C@]4(OC(C)=O)CO[C@@H]4C[C@H](O)[C@@]3(C)C(=O)[C@H](OC(C)=O)C(=C1C)C2(C)C [Cephalomannine] | 0.467 | 0.448
CCC(COC(=O)c1cc(OC)c(OC)c(OC)c1)(c1ccccc1)N(C)C (stereo not given) [Trimebutine] | 1.11 | 0.97
NCCc1c[nH]c2ccc(O)cc12 [Serotonin HCl] | 1.02 | 1.02
COc1ccc(C[C@H]2NC[C@H](O)[C@H]2OC(C)=O)cc1 [Anisomycin] | 0.177 | 0.217
COc1ccc2c(c1)/C(=C/c1cnc[nH]1)C(=O)N2 | 0.897 | 0.708
C[C@@H]1CC[C@H]2[C@@H](C)C(=O)O[C@@H]3O[C@@]4(C)CC[C@@H]1[C@]32OO4 [Artemisinin] | 0.982 | 0.733
Cc1c(Cl)c(OCC(=O)N2CCN(C)CC2)nc2sc(C(=O)NC3CC3)c(N)c12 | 0.773 | 0.819
Cc1cccc([C@H](C)c2c[nH]cn2)c1C [Dexmedetomidine] | 0.951 | 0.832
C#C[C@]1(O)C=C[C@H]2[C@@H]3CCC4=CC(=O)CC[C@@H]4[C@H]3CC[C@@]21CC [Gestodene] | 0.925 | 1.03
NCC(=O)O.[C-]#[O+].[C-]#[O+].[C-]#[O+].[Cl][Ru] | 0.949 | 0.728
C[C@@]12N[C@@H](Cc3ccccc31)c1ccccc12 [(-)-MK 801 Maleate] | 0.906 | 0.846
